Experimental data as given in patent US20250170268A1, “METHODS AND TOOLS FOR CONJUGATION TO ANTIBODIES” (priority 2022, published 2025).

System: human pancreatic adenocarcinoma cell line-derived xenograft model HPAF-II
Experiment: HPAF-II xenograft efficacy study
Type: in vivo, mice (Hsd: Athymic Nude-Foxn1nu)
Details: single i.v. treatment at 1 or 6 mg/kg
Description: Efficacy of ADC1-M and ADC3-M in comparison to ADC8 was evaluated in the human pancreatic adenocarcinoma cell line-derived xenograft model HPAF-II (ATCC, CRL-1997). Six to eight weeks old immunodeficient female mice (Hsd: Athymic Nude-Foxn1nu, Envigo) were injected subcutaneously in the right flank with 5×10^6 HPAF-II cells. When tumors reached a mean volume of 150 mm^3, 10 mice/group were treated once intravenously with ADC1-M (1 mg/kg or 6 mg/kg) or with ADC3-M (1 mg/kg or 6 mg/kg) or with ADC8 (1 mg/kg or 6 mg/kg). Tumor length (L) and width (W) were measured with calipers and tumor volumes were calculated using the formula L×W^2/2.

B1: ADC8 (conjugate)
heavy: DIQLTQSPSSLSASVGDRVTITCKASQDVGTSVAWYQQKPGKAPKLLIYWTSTRHTGVPSRFSGSGSGTDFTFTISSLQPEDIATYYCQQYSLYRSFGQGTKVEIKRTVAAPSVFIFPPSDEQLKSGTASVVCLLNNFYPREAKVQWKVDNALQSGNSQESVTEQDSKDSTYSLSSTLTLSKADYEKHKVYACEVTHQGLSSPVTKSFNRGECEVQLVESGGGVVQPGRSLRLSCSASGFDFTTYWMSWVRQAPGKGLEWIGEIHPDSSTINYAPSLKDRFTISRDNAKNTLFLQMDSLRPEDTGVYFCASLYFGFPWFAYWGQGTPVTVSSASTKGPSVFPLAPSSKSTSGGTAALGCLVKDYFPEPVTVSWNSGALTSGVHTFPAVLQSSGLYSLSSVVTVPSSSLGTQTYICNVNHKPSNTKVDKRV[letters of human IgG1 Fc left out]
light: DIQLTQSPSSLSASVGDRVTITCKASQDVGTSVAWYQQKPGKAPKLLIYWTSTRHTGVPSRFSGSGSGTDFTFTISSLQPEDIATYYCQQYSLYRSFGQGTKVEIKRTVAAPSVFIFPPSDEQLKSGTASVVCLLNNFYPREAKVQWKVDNALQSGNSQESVTEQDSKDSTYSLSSTLTLSKADYEKHKVYACEVTHQGLSSPVTKSFNRGEC
  anti-tumor effect, HPAF-II xenograft, 1 or 6 mg/kg: no significant anti-tumor effect
